Source: article PMC6451091
The list shows a part of the results. For some assays here: At the low end of the ranking the order means little. For some assays here: Measured with an extract: partners may take part in the binding.

Each sequence was assayed against PU.1 (IVT) (UniProt P17947) (assay: protein-binding microarray (PBM)). Conditions: 20 mM HEPES pH 7.9, 100 mM NaCl, 1 mM DTT, 0.2 mg/mL BSA, 0.02% Triton X-100, 2% milk, 0.4 mg/mL salmon testes DNA; 1 h; temperature not stated; high values mean tight binding; double strand, one strand shown; sequences stand for … in GCCTAGCAC…GTGCTAGGTCTTGATTCGCTTGACGCTGCTG.

Row | Sequence | binding signal [z-score]
1 | CAGTGAGGGAAGTGGCTGAA | 2.16
2 | GAAAAGGGGAACTGCTGAAT | 6.33
3 | ACATAAAGGAACTGTGCCCC | 0.768
4 | AGAAAAGGGAAGTGGGGAAG | 6.34
5 | CAAGGAAGGAAGTGGTGAGA | 2.33
6 | TCAGGGAGGAAGTGGTGGGG | 3.65
7 | AAAAACAGGAAGTGGGGAAA | 8.01
8 | CCAATGAGGAAGTGGACAAA | 5.81
9 | CACAAGGGGAAGTACTGTGC | 5
10 | GAAATGAGGAAGTTGAGAGC | 8.36
11 | CAAAAGAGGAAGTCAAATTG | 8.09
12 | CAACAGAGGAAGTGGGACAT | 3.15
13 | GAAGAGAGGAAGTACTGCCT | 5.12
14 | GCAAAGAGGAAGTGGGGTTG | 6.71
15 | CCAGGAGGGAAGTGCTTGGT | 2.67
16 | AGGAAGAGGAAGAGGAAGAA | 4.95
17 | AAAGAAAGGAAGTGGCCTGT | 2.71
18 | AGATTGAGGAAGTGAAGTGA | 6.27
19 | CCTGAGGGGAAGTGGGTCAG | 3.52
20 | CAATTCAGGAAGTGTGGCAA | 4.09

Row | Sequence | binding signal [z-score]
21 | GGGAGAAGGAAGTGGGAGCC | 2.71
22 | TAAAAGAGGAAGTGACCTCA | 7.82
23 | GAGAAGAGGAAGTGCCCCGT | 6.56
24 | GGAAAAAGGAAGTGCTTGCT | 5.77
25 | TGCAAGAGGAAGTGCAACCA | 4.86
26 | GAGGAGAGGAAGTAAGATTT | 4.49
27 | GAAAACAGGAAGTCACATAG | 7.27
28 | GAAATCAGGAAGTGAGAGTC | 5.88
29 | AACAACAGGAAGTGGCTCCT | 4.3
30 | ATGGAGAGGAAGTGATGCCT | 4.09
31 | CAAAAAGGGAAGCGGATGCT | 3.71
32 | CCAAGGAGGAAGTGAGGCCT | 4.24
33 | AGGGAAAGGAAGTGGTTGGA | 2.46
34 | GAGGAGGGGAAGTGAAATAT | 3.64
35 | CAAAAGAGGAACTCATTTTT | 6.82
36 | TAGAGCAGGAAGTGACTGAT | 2.69
37 | AGAAGGAGGAAGTTAGGACT | 6.49
38 | CTGTTAGGGAAGTGCCTGGG | 3.51
39 | CATCAGAGGAAGTGAATAAA | 2.99
40 | ATTTTAGGGAACTACTGTGC | 4.61

These sequences were tested against PU.1 (endogenous, THP-1 nuclear extract) (UniProt P17947) (assay: nuclear extract protein-binding microarray (nextPBM)). Conditions: 20 mM HEPES pH 7.9, 100 mM NaCl, 1 mM DTT, 0.2 mg/mL BSA, 0.02% Triton X-100, 2% milk, 0.4 mg/mL salmon testes DNA; 1 h; temperature not stated; high values mean tight binding; double strand, one strand shown; sequences stand for … in GCCTAGCAC…GTGCTAGGTCTTGATTCGCTTGACGCTGCTG.

Row | Sequence | binding signal [z-score]
41 | CAGTGAGGGAAGTGGCTGAA | 2.28
42 | GAAAAGGGGAACTGCTGAAT | 6.61
43 | ACATAAAGGAACTGTGCCCC | 1.03
44 | AGAAAAGGGAAGTGGGGAAG | 6.5
45 | CAAGGAAGGAAGTGGTGAGA | 2.32
46 | TCAGGGAGGAAGTGGTGGGG | 3.53
47 | AAAAACAGGAAGTGGGGAAA | 7.22
48 | CCAATGAGGAAGTGGACAAA | 6.15
49 | CACAAGGGGAAGTACTGTGC | 5.42
50 | GAAATGAGGAAGTTGAGAGC | 7.31
51 | CAAAAGAGGAAGTCAAATTG | 7.16
52 | CAACAGAGGAAGTGGGACAT | 3.3
53 | GAAGAGAGGAAGTACTGCCT | 4.99
54 | GCAAAGAGGAAGTGGGGTTG | 6.77
55 | CCAGGAGGGAAGTGCTTGGT | 2.58
56 | AGGAAGAGGAAGAGGAAGAA | 5.31
57 | AAAGAAAGGAAGTGGCCTGT | 2.56
58 | AGATTGAGGAAGTGAAGTGA | 6.54
59 | CCTGAGGGGAAGTGGGTCAG | 3.62
60 | CAATTCAGGAAGTGTGGCAA | 4.42

Row | Sequence | binding signal [z-score]
61 | GGGAGAAGGAAGTGGGAGCC | 2.63
62 | TAAAAGAGGAAGTGACCTCA | 7.44
63 | GAGAAGAGGAAGTGCCCCGT | 6.82
64 | GGAAAAAGGAAGTGCTTGCT | 6.07
65 | TGCAAGAGGAAGTGCAACCA | 5.63
66 | GAGGAGAGGAAGTAAGATTT | 4.61
67 | GAAAACAGGAAGTCACATAG | 7.04
68 | GAAATCAGGAAGTGAGAGTC | 6.71
69 | AACAACAGGAAGTGGCTCCT | 4.58
70 | ATGGAGAGGAAGTGATGCCT | 3.94
71 | CAAAAAGGGAAGCGGATGCT | 4.29
72 | CCAAGGAGGAAGTGAGGCCT | 5.39
73 | AGGGAAAGGAAGTGGTTGGA | 2.26
74 | GAGGAGGGGAAGTGAAATAT | 3.73
75 | CAAAAGAGGAACTCATTTTT | 6.94
76 | TAGAGCAGGAAGTGACTGAT | 2.85
77 | AGAAGGAGGAAGTTAGGACT | 6.43
78 | CTGTTAGGGAAGTGCCTGGG | 3.67
79 | CATCAGAGGAAGTGAATAAA | 3.05
80 | ATTTTAGGGAACTACTGTGC | 4.74
